# Reference: the supplement of paper PMC8728848
# This is one part of the list.
# What was measured:
# Test in all cases: glycan array binding signal (z-score within array); higher = stronger binding
# Conditions in all cases: glycan notation: IUPAC condensed, linker removed
# [1] = target: Man(a1-2)Man(a1-3)[Man(a1-2)Man(a1-6)]Man(a1-6)[Man(a1-2)Man(a1-2)Man(a1-3)]Man
# Summary of the method: (§1)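 The binding signal is a Z-score computed within each array and averaged over linkers. Arrays of the same protein sequence at different concentrations or buffers were also averaged together. Data originate from 3228 arrays in the Consortium for Functional Glycomics database, kept only where the protein sequence was available.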
# [2] = target: Man(a1-2)Man(a1-3)[Man(a1-2)Man(a1-6)]Man(a1-6)[Man(a1-2)Man(a1-2)Man(a1-3)]Man(b1-4)GlcNAc(b1-4)GlcNAc
# Summary of the method: as §1
# [3] = target: Man(a1-2)Man(a1-3)[Man(a1-6)]Man(a1-6)[Man(a1-2)Man(a1-3)]Man(b1-4)GlcNAc(b1-4)GlcNAc
# Summary of the method: as §1
# [4] = target: Man(a1-2)Man(a1-6)[Man(a1-3)]Man(a1-6)[Man(a1-2)Man(a1-2)Man(a1-3)]Man
# Summary of the method: as §1
# [5] = target: Man(a1-2)Man(a1-6)[Man(a1-3)]Man(a1-6)[Man(a1-2)Man(a1-2)Man(a1-3)]Man(b1-4)GlcNAc(b1-4)GlcNAc
# Summary of the method: as §1
# Man(a1-3)[Man(a1-6)]Man = target: Man(a1-3)[Man(a1-6)]Man
# Summary of the method: as §1
# [6] = target: Man(a1-3)[Man(a1-6)]Man(a1-6)[Man(a1-2)Man(a1-3)]Man(b1-4)GlcNAc(b1-4)GlcNAc
# Summary of the method: as §1
# [7] = target: Man(a1-3)[Man(a1-6)]Man(a1-6)[Man(a1-3)]Man
# Summary of the method: as §1
# [8] = target: Man(a1-3)[Man(a1-6)]Man(a1-6)[Man(a1-3)]Man(b1-4)GlcNAc(b1-4)GlcNAc
# Summary of the method: as §1
# [9] = target: Man(a1-3)[Man(a1-6)]Man(b1-4)GlcNAc(b1-4)GlcNAc
# Summary of the method: as §1
# [10] = target: Man(a1-3)[Man(a1-6)]Man(b1-4)GlcNAc(b1-4)[Fuc(a1-6)]GlcNAc
# Summary of the method: as §1
# Man(a1-6)Man = target: Man(a1-6)Man
# Summary of the method: as §1
# Man(b1-4)GlcNAc = target: Man(b1-4)GlcNAc
# Summary of the method: as §1
# MurNAc(b1-4)GlcNAc = target: MurNAc(b1-4)GlcNAc
# Summary of the method: as §1
# Neu5Ac(a2-3)Gal = target: Neu5Ac(a2-3)Gal
# Summary of the method: as §1
# [11] = target: Neu5Ac(a2-3)Gal(b1-3)GalNAc
# Summary of the method: as §1
# [12] = target: Neu5Ac(a2-3)Gal(b1-3)GalNAc(b1-3)Gal(a1-4)Gal(b1-4)Glc
# Summary of the method: as §1
# [13] = target: Neu5Ac(a2-3)Gal(b1-3)GalNAc(b1-4)[Neu5Ac(a2-3)]Gal(b1-4)Glc
# Summary of the method: as §1
# [14] = target: Neu5Ac(a2-3)Gal(b1-3)GalNAc(b1-4)[Neu5Ac(a2-8)Neu5Ac(a2-3)]Gal(b1-4)Glc
# Summary of the method: as §1
# [15] = target: Neu5Ac(a2-3)Gal(b1-3)GalNAc6S
# Summary of the method: as §1
# [16] = target: Neu5Ac(a2-3)Gal(b1-3)GlcNAc
# Summary of the method: as §1
# [17] = target: Neu5Ac(a2-3)Gal(b1-3)GlcNAc(b1-2)Man
# Summary of the method: as §1
# [18] = target: Neu5Ac(a2-3)Gal(b1-3)GlcNAc(b1-2)Man(a1-3)[GlcNAc(b1-4)][Neu5Ac(a2-3)Gal(b1-3)GlcNAc(b1-2)Man(a1-6)]Man(b1-4)GlcNAc(b1-4)GlcNAc
# Summary of the method: as §1
# [19] = target: Neu5Ac(a2-3)Gal(b1-3)GlcNAc(b1-2)Man(a1-3)[Neu5Ac(a2-3)Gal(b1-3)GlcNAc(b1-2)Man(a1-6)]Man(b1-4)GlcNAc(b1-4)GlcNAc
# Summary of the method: as §1
# [20] = target: Neu5Ac(a2-3)Gal(b1-3)GlcNAc(b1-3)Gal(b1-3)GlcNAc
# Summary of the method: as §1
# [21] = target: Neu5Ac(a2-3)Gal(b1-3)GlcNAc(b1-3)Gal(b1-4)GlcNAc
# Summary of the method: as §1
# [22] = target: Neu5Ac(a2-3)Gal(b1-3)GlcNAc(b1-3)GalNAc
# Summary of the method: as §1
# [23] = target: Neu5Ac(a2-3)Gal(b1-3)GlcNAc(b1-4)Gal(b1-4)Glc
# Summary of the method: as §1
# [24] = target: Neu5Ac(a2-3)Gal(b1-3)GlcNAc(b1-6)GalNAc
# Summary of the method: as §1
# [25] = target: Neu5Ac(a2-3)Gal(b1-3)GlcNAc6S
# Summary of the method: as §1
# [26] = target: Neu5Ac(a2-3)Gal(b1-3)[Fuc(a1-4)]GlcNAc
# Summary of the method: as §1
# [27] = target: Neu5Ac(a2-3)Gal(b1-3)[Fuc(a1-4)]GlcNAc(b1-3)Gal(b1-3)[Fuc(a1-4)]GlcNAc
# Summary of the method: as §1
# [28] = target: Neu5Ac(a2-3)Gal(b1-3)[Fuc(a1-4)]GlcNAc(b1-3)Gal(b1-4)[Fuc(a1-3)]GlcNAc
# Summary of the method: as §1
# [29] = target: Neu5Ac(a2-3)Gal(b1-3)[GlcNAc(b1-6)]GalNAc
# Summary of the method: as §1
# [30] = target: Neu5Ac(a2-3)Gal(b1-3)[Neu5Ac(a2-6)]GalNAc
# Summary of the method: as §1
# [31] = target: Neu5Ac(a2-3)Gal(b1-3)[Neu5Ac(a2-6)]GlcNAc(b1-3)[Fuc(a1-3)[Gal(b1-4)]GlcNAc(b1-6)]Gal(b1-4)Glc
# Summary of the method: as §1
# [32] = target: Neu5Ac(a2-3)Gal(b1-3)]Neu5Ac(a2-3)Gal(b1-4)]GlcNAc
# Summary of the method: as §1
# Neu5Ac(a2-3)Gal(b1-4)Glc = target: Neu5Ac(a2-3)Gal(b1-4)Glc
# Summary of the method: as §1
# [33] = target: Neu5Ac(a2-3)Gal(b1-4)GlcNAc
# Summary of the method: as §1
# [34] = target: Neu5Ac(a2-3)Gal(b1-4)GlcNAc(b1-2)Man
# Summary of the method: as §1
# [35] = target: Neu5Ac(a2-3)Gal(b1-4)GlcNAc(b1-2)Man(a1-3)[GlcNAc(b1-4)][Neu5Ac(a2-3)Gal(b1-4)GlcNAc(b1-2)Man(a1-6)]Man(b1-4)GlcNAc(b1-4)GlcNAc
# Summary of the method: as §1
# [36] = target: Neu5Ac(a2-3)Gal(b1-4)GlcNAc(b1-2)Man(a1-3)[Neu5Ac(a2-3)Gal(b1-4)GlcNAc(b1-2)Man(a1-6)]Man(b1-4)GlcNAc(b1-4)GlcNAc
# Summary of the method: as §1
# [37] = target: Neu5Ac(a2-3)Gal(b1-4)GlcNAc(b1-2)Man(a1-3)[Neu5Ac(a2-3)Gal(b1-4)GlcNAc(b1-2)Man(a1-6)]Man(b1-4)GlcNAc(b1-4)[Fuc(a1-6)]GlcNAc
# Summary of the method: as §1
# [38] = target: Neu5Ac(a2-3)Gal(b1-4)GlcNAc(b1-2)Man(a1-3)[Neu5Ac(a2-6)Gal(b1-4)GlcNAc(b1-2)Man(a1-6)]Man(b1-4)GlcNAc(b1-4)GlcNAc
# Summary of the method: as §1
# [39] = target: Neu5Ac(a2-3)Gal(b1-4)GlcNAc(b1-2)[Neu5Ac(a2-3)Gal(b1-4)GlcNAc(b1-4)]Man(a1-3)[GlcNAc(b1-4)][Neu5Ac(a2-3)Gal(b1-4)GlcNAc(b1-2)[Neu5Ac(a2-3)Gal(b1-4)GlcNAc(b1-6)]Man(a1-6)]Man(b1-4)GlcNAc(b1-4)GlcNAc
# Summary of the method: as §1
binder,measurement,setting,value
AT1G15820(NC) (Arabidopsis thaliana) (protein) MAMAVSGAVLSGLGSSFLTGGKRGATALASGVGDAIAPFSFGSLLGTQLLLMGWVESKRWVDFFNPDSQSVEWATPWSKTAENFANYTGDQGYPGGRFFDPLGLAGKNRDGVYEPDFEKLERLKLAEIKHSRLAMVAMLIFYFEAGQGKTPLGALGL,glycan array binding signal (z-score),[1],-0.369
same,glycan array binding signal (z-score),[2],-0.585
same,glycan array binding signal (z-score),[3],-0.507
same,glycan array binding signal (z-score),[4],-0.141
same,glycan array binding signal (z-score),[5],0.516
same,glycan array binding signal (z-score),Man(a1-3)[Man(a1-6)]Man,0.314
same,glycan array binding signal (z-score),[6],-0.053
same,glycan array binding signal (z-score),[7],-0.196
same,glycan array binding signal (z-score),[8],-0.446
same,glycan array binding signal (z-score),[9],-0.45
same,glycan array binding signal (z-score),[10],-0.082
same,glycan array binding signal (z-score),Man(a1-6)Man,-0.511
same,glycan array binding signal (z-score),Man(b1-4)GlcNAc,0.172
same,glycan array binding signal (z-score),MurNAc(b1-4)GlcNAc,-0.108
same,glycan array binding signal (z-score),Neu5Ac(a2-3)Gal,-0.457
same,glycan array binding signal (z-score),[11],-0.604
same,glycan array binding signal (z-score),[12],-0.441
same,glycan array binding signal (z-score),[13],-0.581
same,glycan array binding signal (z-score),[14],-0.683
same,glycan array binding signal (z-score),[15],-0.597
same,glycan array binding signal (z-score),[16],-0.178
same,glycan array binding signal (z-score),[17],1.29
same,glycan array binding signal (z-score),[18],-0.282
same,glycan array binding signal (z-score),[19],0.358
same,glycan array binding signal (z-score),[20],-0.521
same,glycan array binding signal (z-score),[21],-0.47
same,glycan array binding signal (z-score),[22],-0.434
same,glycan array binding signal (z-score),[23],-0.353
same,glycan array binding signal (z-score),[24],-0.225
same,glycan array binding signal (z-score),[25],0.445
same,glycan array binding signal (z-score),[26],0.003
same,glycan array binding signal (z-score),[27],-0.555
same,glycan array binding signal (z-score),[28],0.108
same,glycan array binding signal (z-score),[29],0.148
same,glycan array binding signal (z-score),[30],-0.248
same,glycan array binding signal (z-score),[31],-0.357
same,glycan array binding signal (z-score),[32],0.339
same,glycan array binding signal (z-score),Neu5Ac(a2-3)Gal(b1-4)Glc,0.04
same,glycan array binding signal (z-score),[33],0.064
same,glycan array binding signal (z-score),[34],-0.217
same,glycan array binding signal (z-score),[35],-0.478
same,glycan array binding signal (z-score),[36],-0.433
same,glycan array binding signal (z-score),[37],-0.329
same,glycan array binding signal (z-score),[38],-0.673
same,glycan array binding signal (z-score),[39],-0.548
